The record followed here is article PMC4336329 (PLoS ONE, 2015).

The structures appear in SMILES notation. The campaign covered roughly 310,000 compounds. About 2,200 (0.71%) showed an effect of 50% or more. Effects have a minus sign here. Some of the results follow.

Sequence of human ether-à-go-go-related gene (hERG) potassium channel (Q12809 whole entry, looked up): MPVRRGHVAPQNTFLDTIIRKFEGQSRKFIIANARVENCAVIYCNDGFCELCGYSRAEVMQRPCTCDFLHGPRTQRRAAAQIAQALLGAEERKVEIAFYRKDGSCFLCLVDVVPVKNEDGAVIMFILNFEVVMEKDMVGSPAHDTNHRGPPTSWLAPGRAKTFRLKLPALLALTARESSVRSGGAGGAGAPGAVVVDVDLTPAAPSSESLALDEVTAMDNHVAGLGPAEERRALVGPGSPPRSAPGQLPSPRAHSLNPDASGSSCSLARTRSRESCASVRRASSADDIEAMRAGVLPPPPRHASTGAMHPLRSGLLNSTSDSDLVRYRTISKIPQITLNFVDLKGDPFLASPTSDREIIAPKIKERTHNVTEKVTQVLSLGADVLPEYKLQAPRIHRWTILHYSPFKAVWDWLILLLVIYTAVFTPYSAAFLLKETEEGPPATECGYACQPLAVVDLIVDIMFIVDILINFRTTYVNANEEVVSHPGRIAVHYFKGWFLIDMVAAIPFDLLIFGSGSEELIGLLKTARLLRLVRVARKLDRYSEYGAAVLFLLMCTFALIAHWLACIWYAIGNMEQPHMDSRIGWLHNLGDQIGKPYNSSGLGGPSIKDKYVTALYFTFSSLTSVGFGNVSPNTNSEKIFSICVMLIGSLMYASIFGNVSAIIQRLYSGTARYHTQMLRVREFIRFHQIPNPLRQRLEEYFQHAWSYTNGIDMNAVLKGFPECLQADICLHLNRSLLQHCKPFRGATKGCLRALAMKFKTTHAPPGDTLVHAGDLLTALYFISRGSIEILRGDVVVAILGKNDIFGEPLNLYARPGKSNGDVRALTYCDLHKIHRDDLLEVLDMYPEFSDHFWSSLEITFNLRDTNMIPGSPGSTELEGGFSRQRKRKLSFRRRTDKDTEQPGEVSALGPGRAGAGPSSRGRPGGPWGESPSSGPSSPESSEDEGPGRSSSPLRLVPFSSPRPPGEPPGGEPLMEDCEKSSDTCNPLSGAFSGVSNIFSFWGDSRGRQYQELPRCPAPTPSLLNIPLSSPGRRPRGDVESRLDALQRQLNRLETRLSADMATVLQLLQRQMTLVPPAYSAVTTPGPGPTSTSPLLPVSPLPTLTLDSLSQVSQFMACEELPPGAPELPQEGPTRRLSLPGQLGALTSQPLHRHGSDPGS

The assay has as its target human ether-à-go-go-related gene (hERG) potassium channel (human, UniProt Q12809). The assay is described as follows: primary screen, population patch clamp on CHO cells stably expressing hERG.
As to `O=C(O)Cc1c(-c2ccccc2)c2cc(Br)ccc2[nH]c1=O`, the “hERG current change (%, negative = inhibition) at 1uM” value was 10.3%.

Take `Fc1cccc(Cl)c1/C=N/n1c(-c2cccnc2)n[nH]c1=S`: the “hERG current change (%, negative = inhibition) at 1uM” value worked out at 5.58%.

`CC(C)(C)c1ccc(Cn2c(=N)n(CC(O)c3ccco3)c3ccccc32)cc1.Cl` (centres unmarked): the “hERG current change (%, negative = inhibition) at 1uM” value is -7.74%.

Consider `O=C(O)c1ccccc1SCC(=O)N1CCOCC1`, for which the “hERG current change (%, negative = inhibition) at 1uM” value turned out to be 11.3%.

For the compound `CCOC(=O)CNC(=O)c1cc(OC)cc(OC)c1`, the “hERG current change (%, negative = inhibition) at 1uM” value was 16.1%.

As for `Clc1ccc2c(c1)C1=C(C(c3ccncc3)O2)C(c2ccc(Br)cc2)n2ncnc2N1` (centres unmarked), the “hERG current change (%, negative = inhibition) at 1uM” value is on record as 13.3%.

With `Cc1cc(C)c[n+](-c2nc3ccccc3nc2[N-]S(=O)(=O)c2ccc(Cl)cc2)c1`, the “hERG current change (%, negative = inhibition) at 1uM” value is on record as 7.19%.

With `COC(=O)C1=C(C)N(CC2CC2)C(=NCc2cc(OC)c(OC)c(OC)c2)N[C@H]1c1ccccc1`, the “hERG current change (%, negative = inhibition) at 1uM” value is on record as 7.25%.

On to `N#CCSc1nc2[nH]ncc2c(=O)n1-c1ccccc1Br`, for which the “hERG current change (%, negative = inhibition) at 1uM” value is listed as -0.962%.

With `CN(C1=C(NC(=O)c2ccc(Cl)cc2)C(=O)c2ccccc2C1=O)c1ccccc1`, the “hERG current change (%, negative = inhibition) at 1uM” value was determined as 8.8%.

Turning to `Cc1nc2nc(N)nn2c(C)c1C/C=C/c1ccccc1`, the “hERG current change (%, negative = inhibition) at 1uM” value is 2.83%.

With `O=C(CCNS(=O)(=O)c1ccc(Br)s1)NCc1ccc2c(c1)OCO2`, the “hERG current change (%, negative = inhibition) at 1uM” value is on record as 5.23%.

With `O=C(N1CCCCCC1)N1CCN(S(=O)(=O)c2cccc([N+](=O)[O-])c2)CC1`, the “hERG current change (%, negative = inhibition) at 1uM” value was -14.8%.

`CN1CCc2c(sc(NC(=O)c3ccc(S(=O)(=O)N4CCCCCC4)cc3)c2C(N)=O)C1`: the “hERG current change (%, negative = inhibition) at 1uM” value came to 19.1%.

For the compound `COC(=O)c1ccc(Cn2cnc3c(cnn3-c3ccc(Cl)cc3)c2=O)o1`, the “hERG current change (%, negative = inhibition) at 1uM” value is on record as 9.26%.

For `COc1ccccc1CNC(=O)c1n[nH]c2ccccc12`, the “hERG current change (%, negative = inhibition) at 1uM” value stood at 10.8%.

With `COc1cccc(CNC(=O)CN2C(=O)CSc3ccc(S(=O)(=O)N4CCOCC4)cc32)c1`, the “hERG current change (%, negative = inhibition) at 1uM” value came to 17.5%.

Consider `CN(C)CCCn1c2c(c(SCC(=O)Nc3ccc4c(c3)OCO4)nc1=O)CCCC2`, for which the “hERG current change (%, negative = inhibition) at 1uM” value was -4.13%.

On to `O=C(Oc1ccccc1N1CCOCC1)c1ccccc1`, for which the “hERG current change (%, negative = inhibition) at 1uM” value came to 9.43%.

In the case of `O=C(CN1C(=O)CCSc2ccccc21)Nc1ccc2c(c1)OCO2`, the “hERG current change (%, negative = inhibition) at 1uM” value is on record as -4.53%.

Regarding `CO/N=C\c1cc(C(=O)c2ccc(Cl)cc2Cl)cn1C`, the “hERG current change (%, negative = inhibition) at 1uM” value turned out to be 11.4%.

In the case of `CCc1ccc(OCC(=O)N2CCN(c3ccccn3)CC2)c(Br)c1`, the “hERG current change (%, negative = inhibition) at 1uM” value is 11.2%.

Take `CCOC(=O)C1CCC(CNCc2ccc(Cl)cc2)CC1` (centres unmarked): the “hERG current change (%, negative = inhibition) at 1uM” value is given as -19.8%.

As to `CS(=O)(=O)c1ncc(Cl)c(C(=O)Nc2ccc(N3CCOCC3)cc2)n1`, the “hERG current change (%, negative = inhibition) at 1uM” value turned out to be 12.5%.

For `CCN(CC)CC(=O)Nc1sc(C)c(C)c1C(=O)c1ccc(C)cc1`, the “hERG current change (%, negative = inhibition) at 1uM” value worked out at 0.368%.

As for `CCOc1ccc(N2CC(O)(c3cccs3)[N+]3=C2CCCC3)cc1.[Br-]` (centres unmarked), the “hERG current change (%, negative = inhibition) at 1uM” value is given as -32.5%.

As for `Cc1cc(Nc2ccccc2)nn1C(=O)c1ccc(Cl)cc1`, the “hERG current change (%, negative = inhibition) at 1uM” value is 16%.

For the compound `CC(Oc1ccccc1)C(=O)N=Nc1c(O)[nH]c2ccc([N+](=O)[O-])cc12` (centres unmarked), the “hERG current change (%, negative = inhibition) at 1uM” value was determined as 8.53%.

As for `COc1ccccc1N(CC(=O)NC(C)C)S(=O)(=O)c1cccs1`, the “hERG current change (%, negative = inhibition) at 1uM” value worked out at 13.8%.

Turning to `CCN1CC2CCCC3(C1)C(=O)NC1(CCCCC1)N=C23` (centres unmarked), the “hERG current change (%, negative = inhibition) at 1uM” value turned out to be 9.14%.

Turning to `CC(C)Oc1ccc(C(=O)NC(Cc2c[nH]c3ccccc23)C(=O)NN)cc1` (centres unmarked), the “hERG current change (%, negative = inhibition) at 1uM” value was 11.3%.

Consider `CC(C)(C)N/C=C(\C#N)S(=O)(=O)c1ccc(Br)cc1`, for which the “hERG current change (%, negative = inhibition) at 1uM” value is 2.97%.

Take `Cc1cc(C)c(C)c(S(=O)(=O)Nc2ccc(OCC(=O)O)cc2)c1C`: the “hERG current change (%, negative = inhibition) at 1uM” value came out at 4.35%.

As for `CCCOc1ccc(C(=O)NCCC(=O)NCCCC(=O)O)cc1`, the “hERG current change (%, negative = inhibition) at 1uM” value was determined as 10.7%.

For `CCC1=C(OC(=O)N(CC)CC)N2C(=O)OC(=NCc3ccccc3)[C@]2(C)[C@H]2C1=CC[C@H]1C(=O)N(CC)C(=O)[C@H]12`, the “hERG current change (%, negative = inhibition) at 1uM” value amounted to 12.3%.

With `COc1ccc(-c2noc(CNC(=O)c3ccoc3C)n2)cc1`, the “hERG current change (%, negative = inhibition) at 1uM” value came out at 5.41%.

Regarding `CCn1c(=S)sc2c(=O)n(CC(=O)Nc3ccc(C(C)=O)cc3)c(C)nc21`, the “hERG current change (%, negative = inhibition) at 1uM” value is recorded as 11.9%.

Consider `CCn1cc(/C=N\NC(=O)c2ccc(F)cc2)cn1`, for which the “hERG current change (%, negative = inhibition) at 1uM” value was determined as 8.32%.

On to `CCOC(=O)c1ccc(Oc2nc(NC(C)(C)C)nc(N(C)C)n2)cc1`, for which the “hERG current change (%, negative = inhibition) at 1uM” value is recorded as 6.02%.

Consider `O=C1C2CCCN2C(c2ccccc2)N1c1ccc(Cl)cc1` (centres unmarked), for which the “hERG current change (%, negative = inhibition) at 1uM” value was determined as 13.7%.

Consider `Cc1ccc(-c2noc(/C=C/c3ccccc3)n2)cc1`, for which the “hERG current change (%, negative = inhibition) at 1uM” value was determined as 8.71%.

Consider `O=C(Nc1cccnc1)c1sc(Nc2ccccc2F)nc1-c1ccccc1`, for which the “hERG current change (%, negative = inhibition) at 1uM” value was determined as 17.9%.

With `CC(C)(O)[C@H](O)COc1c2ccoc2cc2oc(=O)ccc12`, the “hERG current change (%, negative = inhibition) at 1uM” value is 14.5%.

On to `CC(=O)N1CSCC1C(=O)O` (centres unmarked), for which the “hERG current change (%, negative = inhibition) at 1uM” value is listed as 18.3%.
